Measurements reported in paper PMC4336329 (PLoS ONE, 2015).
In all, about 310,000 compounds went through this assay and about 14,000 (4.5%) showed an effect of 50% or more. Effects have a minus sign here. The list shows a part of the results.

Target: human ether-à-go-go-related gene (hERG) potassium channel (human, UniProt Q12809)
Experiment: primary screen, population patch clamp on CHO cells stably expressing hERG
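Further: peak tail current of the secondary pulse compared with the same well before compound.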

Chain of human ether-à-go-go-related gene (hERG) potassium channel (Q12809 whole entry, looked up): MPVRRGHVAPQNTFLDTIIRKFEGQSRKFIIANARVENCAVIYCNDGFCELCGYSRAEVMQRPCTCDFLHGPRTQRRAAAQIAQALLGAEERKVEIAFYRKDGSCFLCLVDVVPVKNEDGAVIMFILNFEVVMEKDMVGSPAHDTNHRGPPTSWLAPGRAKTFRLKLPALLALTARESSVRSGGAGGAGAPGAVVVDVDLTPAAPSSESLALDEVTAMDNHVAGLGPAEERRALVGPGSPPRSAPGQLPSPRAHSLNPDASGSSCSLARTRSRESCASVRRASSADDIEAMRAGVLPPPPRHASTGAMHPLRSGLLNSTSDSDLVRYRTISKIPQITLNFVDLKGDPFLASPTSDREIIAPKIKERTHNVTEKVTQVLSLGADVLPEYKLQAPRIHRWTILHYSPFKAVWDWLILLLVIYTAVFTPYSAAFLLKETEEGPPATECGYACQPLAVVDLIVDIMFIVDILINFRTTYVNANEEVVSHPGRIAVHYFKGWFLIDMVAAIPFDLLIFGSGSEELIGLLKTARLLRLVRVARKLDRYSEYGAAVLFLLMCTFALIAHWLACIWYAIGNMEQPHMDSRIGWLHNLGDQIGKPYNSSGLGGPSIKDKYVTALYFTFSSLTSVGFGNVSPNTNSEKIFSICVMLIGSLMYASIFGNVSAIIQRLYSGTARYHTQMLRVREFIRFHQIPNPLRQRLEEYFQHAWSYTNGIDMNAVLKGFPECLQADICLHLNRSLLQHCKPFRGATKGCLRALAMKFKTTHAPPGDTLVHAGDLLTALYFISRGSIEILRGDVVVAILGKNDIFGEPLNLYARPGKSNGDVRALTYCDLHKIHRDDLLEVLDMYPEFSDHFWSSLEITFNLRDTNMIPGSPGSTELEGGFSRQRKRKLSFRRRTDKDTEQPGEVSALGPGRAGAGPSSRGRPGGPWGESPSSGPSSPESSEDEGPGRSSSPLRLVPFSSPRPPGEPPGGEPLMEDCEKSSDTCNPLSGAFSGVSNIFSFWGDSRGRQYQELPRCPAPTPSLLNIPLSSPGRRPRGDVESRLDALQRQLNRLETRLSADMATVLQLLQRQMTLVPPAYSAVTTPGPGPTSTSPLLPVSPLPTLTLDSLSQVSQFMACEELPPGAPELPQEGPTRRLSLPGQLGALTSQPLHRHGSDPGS

Row | Structure (SMILES) | hERG current change (%, negative = inhibition) at 10uM [%]
1 | Cc1cc2ccccc2c(=O)n1CC(=O)NCC(=O)N1CCCC(C)C1 (centres unmarked) | 11.9
2 | COc1ccc(/C(N)=N/OC(=O)Cc2ccccc2)cc1 | 5.67
3 | COC(=O)c1cc(=O)nc2scc(C)n12 | -23.1
4 | CNC(=O)c1cc2cc(OC)ccc2n1CCN(C)C | -11.6
5 | COc1ccc(CNC(=O)C2CCN(S(C)(=O)=O)CC2)c(OC)c1 | 4.8
6 | CCOc1ccc(S(=O)(=O)N2CCCC(C(=O)NCc3cccnc3)C2)cc1Cl (centres unmarked) | -30.1
7 | COCCNc1oc(/C=C/c2ccccc2)nc1C#N | 1.87
8 | CCCCN(CC)CCCNC(=O)c1ccc2c(c1)N(CC)C(=O)c1ccccc1S2(=O)=O | -16.6
9 | CC(C)C(=O)c1cn(CC(=O)NCc2ccco2)c2ccccc12 | 11.5
10 | COc1ccccc1NC(=O)CSc1ccc2nnc(CCNC(=O)c3ccccc3)n2n1 | 12.9
11 | CNC(=O)COc1ccc(S(=O)(=O)Nc2ccc(OC)cc2)cc1 | 14.1
12 | O=C(Nc1ccccc1-c1nnn(CC(=O)N2CCCc3ccccc32)n1)c1cccc(Cl)c1 | 3.04
13 | O=Cc1c(NCCN2CCOCC2)c2ccccc2[nH]c1=O | 28.8
14 | CC1CCCC(C)N1S(=O)(=O)c1ccc(NC(=O)CNCC2CCCO2)cc1.O=C(O)C(=O)O (centres unmarked) | -18
15 | COc1ccc([C@@H]2CC=C(C(=O)O)[C@H](c3cccc(Cl)c3)N2S(=O)(=O)c2ccccc2C)cc1 | 24.4
16 | Cc1ccc2[nH]c(=O)c(CN(C)S(=O)(=O)c3cccc4nonc34)cc2c1 | 12.7
17 | COc1cccc(CSc2nnc(-c3ccncc3)n2N)c1 | 7.77
18 | CC(Cc1c[nH]c2ccccc12)C(=O)NCc1ccco1 (centres unmarked) | 14
19 | Cc1cc(C(F)(F)F)n2nc(C)c(-c3ccc(Cl)cc3)c2n1 | 11.9
20 | CCOC(=O)C1CCN(S(=O)(=O)c2ccc(Cl)cc2)CC1 | -40.8
21 | CCCS(=O)(=O)n1nc(-c2ccc(C)cc2)cc1N | 7.45
22 | Cc1ccc(C)c2[nH]c(=O)c(CN(CC3CCCO3)C(=S)NCc3ccco3)cc12 (centres unmarked) | -24.3
23 | Cn1cc([C@@H]2C[C@H]3CN(Cc4cccc(Cl)c4)C(=O)[C@]34CCCN24)c(-c2ccccc2)n1 | -63.3

Row | Structure (SMILES) | hERG current change (%, negative = inhibition) at 10uM [%]
24 | Cc1ccc(NC(=O)OCCN2CCN(Cc3ccccc3)CCC2=O)cc1 | -11.5
25 | COc1cccc(NC(=O)c2cccc(N3C(=O)C4CCC(C)CC4C3=O)c2)c1 (centres unmarked) | 4.01
26 | CCCCCNC(=O)[C@@H]1CSC2c3ccccc3C(=O)N21 (some centres unmarked) | 6.57
27 | Cc1nc(SC2CCOC2=O)c2c(C)c(C)sc2n1 (centres unmarked) | -0.66
28 | CCOC(=O)c1c(C)oc2c1cc(NS(=O)(=O)c1ccc(C(=O)O)cc1)c1ccccc12 | -60.7
29 | Cc1ccc2[nH]c(=S)n(-c3cccnc3)c(=O)c2c1 | 15.1
30 | Cc1ccc(CN2[C@@H](CC3CCCCC3)COCCS2(=O)=O)cc1 | -19.3
31 | CCOc1ccc(/C=C/C(=O)c2c(O)cc(C)oc2=O)cc1 | 6.94
32 | CCOC(=O)Nc1ccc2c(c1)OCO2 | 26.2
33 | CCOc1ccc(C(=O)/C=C/c2cn(CN3CCN(C)CC3)c3ccccc23)cc1 | -8.09
34 | Cc1ccc(OC(=O)c2ccc(Cl)c([N+](=O)[O-])c2)cn1 | 15.9
35 | C=CCn1c(C)nnc1SCC(=O)NC1CC1 | 9.05
36 | Cc1ccc(NCC(=O)N/N=C\c2ccc[nH]2)cc1 | -27.6
37 | Cc1ccccc1-n1c(-c2csc(C)c2C)n[nH]c1=S | 17.6
38 | CCN1CCN(C(=O)CSc2nc3c(c(=O)n(C)c(=O)n3C)n2C)CC1 | 2.79
39 | O=C(C1=C(O)C(=O)N(Cc2ccccc2)C1c1cccnc1)c1ccco1 (centres unmarked) | 0.0177
40 | CCC(COC)NC(=O)CCc1nnc(Cc2cccc(C(F)(F)F)c2)o1 (centres unmarked) | 1.43
41 | O=C(Cn1nnc2ccccc2c1=O)NCC1CCC(C(=O)O)CC1 (centres unmarked) | 13
42 | O=C(Oc1ccc[nH]c1=O)c1cc([N+](=O)[O-])cc([N+](=O)[O-])c1 | 13.5
43 | CC(OC(=O)c1ccc2c(=O)n3c(nc2c1)CCC3)C(=O)Nc1ccc(C(N)=O)cc1 (centres unmarked) | 7.79
44 | CCOc1ccccc1O[C@H](c1ccccc1)[C@H]1CNCCO1.CS(=O)(=O)O.O | 16.2
45 | Cc1ccc(N2CCC(N3CCN(C)C(CCO)C3)CC2)cc1 (centres unmarked) | 12.8
46 | CC(C)CNC(=O)C(=O)NCC1OCCCN1S(=O)(=O)c1ccc2c(c1)OCCO2 (centres unmarked) | 4.37

Row | Structure (SMILES) | hERG current change (%, negative = inhibition) at 10uM [%]
47 | O=C1CS/C(=N/N=C/c2cccs2)N1Cc1ccc(F)cc1 | 9.38
48 | Cc1cc(O)c(C(=O)Nc2cccc(Cl)c2)c(=O)n1C | 19.3
49 | C=CCN(c1ccccc1)S(=O)(=O)c1cccc(C(=O)Nc2ncccc2O)c1 | 8.35
50 | CC(C)Cn1c(N)c(C(=O)CSc2ncnc3sc4c(c23)CCCC4)c(=O)n(C)c1=O | -0.479
51 | Cc1cc2ncn(-c3ncnc4sc5c(c34)CCCC5)c2cc1C | -23.7
52 | O=C(CC1SC2=NCCN2C1=O)Nc1ccccc1 (centres unmarked) | -2.72
53 | O=C(c1ccc(Cl)cc1)c1cnc2ccccn12 | 9.53
54 | CNC(=S)N/N=C/c1ccc(OCc2ccccc2)c(Br)c1 | 1.47
55 | Cc1cc(Cl)ccc1OCCCC(=O)NCc1ccncc1 | -44.4
56 | O=C(O)C1CCN(C(=O)CSc2nc3ccccc3s2)CC1 | 16
57 | CCOC(=O)C1CCN(C(=O)COC(=O)c2ccccc2C(=O)c2ccc(Cl)cc2)CC1 | -50.4
58 | COc1ccc(Cc2nnc(SCC(=O)Nc3ccc(N4CCOCC4)cc3)o2)cc1 | 4.93
59 | Cc1csc(=NC(=O)c2ccccc2)n1Cc1ccco1 | -2.29
60 | CC(/C=N/NC(=O)c1c(Br)cnn1C)=C\c1ccccc1 | -13
61 | COc1cc(C(=O)NC(=S)N(C)Cc2ccccc2)cc(OC)c1OC | -6.48
62 | CCN(Cc1ccccc1)S(=O)(=O)c1c(C(=O)N2CCCC2)c(C)n(C)c1C | -3.66
63 | O=C(COc1ccc(-c2ccccc2)cc1)N1CCN(C(=O)c2cccs2)CC1 | -41.8
64 | Nc1nc2ncc(CNc3ccc(C(=O)N[C@@H](CCC(=O)O)C(=O)O)cc3)nc2c(=O)[nH]1 | 5.77
65 | CCc1nc(C)cc(N)c1OCc1ccccc1.Cl.O | -23.2
66 | O=c1[nH]c2cccc(Cl)c2n(CCNc2ncc(C(F)(F)F)cc2Cl)c1=O | -44.1
67 | Cc1cccc(OCCCn2c(=O)oc3ccc(C)cc32)c1 | 10
68 | NCCc1nnc(SCC(=O)Nc2ccc(Br)cc2)o1 | 13
69 | C/C(=N/OC(=O)c1c(F)cccc1F)c1nccs1 | 3.34

Row | Structure (SMILES) | hERG current change (%, negative = inhibition) at 10uM [%]
70 | C=CCC1c2cccc(C(=O)O)c2C(=O)N1c1cccc(OC)c1 (centres unmarked) | 19.8
71 | O=c1c2ccccc2nc(-c2ccc([N+](=O)[O-])cc2)n1-c1ccccc1 | 3.1
72 | COc1ccc(NC(=O)Cn2c(-c3ccc(OC)cc3)cn(-c3ccc(C)cc3)c2=O)cc1 | 5.11
73 | O=C(c1ccoc1)N1CCC2(CC1)Oc1ccc(Cl)cc1C(=O)C21CC(c2ccccc2)=NO1 (centres unmarked) | -1.66
74 | Cc1ccc(-c2cc(-c3ccc4c(c3)OCO4)c(C#N)c(N)n2)o1 | 4.5
75 | c1ccc(-c2csc3ncnc(NCCCN4CCOCC4)c23)cc1 | -13.2
76 | Cc1nnc(SCC(=O)NC2CC2)n1-c1ccccc1 | 17.3
77 | O=c1cc(-c2ccccc2)[nH]c2ccc(F)cc12 | 5.52
78 | COc1ccc(-n2nc(C(=O)NCC(=O)NCc3ccc(F)cc3)c3ccccc3c2=O)cc1 | -12.1
79 | Cc1cccc2cc(COC(=O)COc3ccccc3)c(=O)[nH]c12 | 0.22
80 | Cc1ccc(NC(=O)c2sccc2C)nc1 | 22.8
81 | c1coc(CN2CN=C(Nc3nc4ccccc4s3)NC2)c1 | 20.6
82 | CCn1nc(C)c(NC(=O)/C=C/c2ccc(OC)c(COc3ccc(Cl)cc3Br)c2)c1C | 3.94
83 | CNS(=O)(=O)Cc1ccc2[nH]cc(CCN(C)C)c2c1.O=C(O)CCC(=O)O | -1.48
84 | COc1cc(CN2CCN(CCCc3ccccc3)CC2CCO)cc(OC)c1 (centres unmarked) | -71.1
85 | O=c1[nH]c(=S)n(-c2ccccc2)c(O)c1/C=N/N1CCCCC1c1cccnc1 (centres unmarked) | -9.96
86 | CCSC(=S)Nc1c(C)n(C)n(-c2ccccc2)c1=O | 11.7
87 | CCNC(=S)Nc1ccc(-c2nc3ccccc3[nH]2)cc1 | -17.3
88 | COc1ccc(OC)c(Nc2nc(-c3cccs3)cs2)c1 | -5.13
89 | COc1ccc(OCc2nn3c(-c4ccco4)nnc3s2)cc1 | -36.6
